# From paper PMC12820563, “FoxP3 forms a head-to-head dimer in vivo and stabilizes its multimerization on adjacent microsatellites”
# The list shows a part of the results.
# Molecular target: T1, MBP-FoxP1dN (Mus musculus, UniProt P58462 326-579)
# T1 sequence: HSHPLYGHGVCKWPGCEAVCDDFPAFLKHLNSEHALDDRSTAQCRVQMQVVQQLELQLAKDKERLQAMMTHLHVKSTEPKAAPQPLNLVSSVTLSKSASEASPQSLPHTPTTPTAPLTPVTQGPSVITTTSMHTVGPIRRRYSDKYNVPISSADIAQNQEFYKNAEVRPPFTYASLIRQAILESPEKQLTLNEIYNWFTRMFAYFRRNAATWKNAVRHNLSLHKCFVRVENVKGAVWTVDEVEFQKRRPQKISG
# Test: PD-seq (MBP pull-down with sequencing); 20 mM Tris-HCl pH 7.5, 100 mM NaCl, 1.5 mM MgCl2, 0.4 uM protein, 0.1 uM dsDNA library, 30 min, room temperature, amylose pull-down; high values mean tight binding
# Details: protein: recombinant; tags: His6-MBP; chain copies: 2; dsDNA, one strand shown
# Procedure, shortened: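 Binding is given as reads-per-million enrichment, pull-down over input, with replicates pooled. The bait was an N-terminus-lacking mouse FoxP3 or FoxP1 fragment with a His6-MBP tag, expressed in E. coli and used at 0.4 µM with 0.1 µM Klenow-filled degenerate double-stranded DNA library for 30 min at room temperature in Tris pH 7.5 buffer with NaCl and MgCl2. Amylose resin pull-down with three washes was followed by proteinase K release, PCR barcoding and Illumina sequencing.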
row,Sequence,binding signal
1,GATGATTGTTCTCCCAGCTGATGAATTGCTGGGCTCGAGTAAACAAATTTTCCTAATCTTTCTGTTCAAGCGCCATCTAC,0.87 RPM ratio (pull-down/input)
2,GATGATTGTTCTCCCAGCTGATGAATTGGTGGAGTCGAGTAAACAAATTTTCCTAATCTTTCTGTTCAAGCGCCATCTAC,0.861 RPM ratio (pull-down/input)
3,GATGATTGTTCTCCCAGCTGATGAATTCATCGCGTCGAGTAAACAAATTTTCCTAATCTTTCTGTTCAAGCGCCATCTAC,0.951 RPM ratio (pull-down/input)
4,GATGATTGTTCTCCCAGCTGATGAATTCCATGCGTCGAGTAAACAAATTTTCCTAATCTTTCTGTTCAAGCGCCATCTAC,0.952 RPM ratio (pull-down/input)
5,GATGATTGTTCTCCCAGCTGATGAATTCGCTATGTCGAGTAAACAAATTTTCCTAATCTTTCTGTTCAAGCGCCATCTAC,0.819 RPM ratio (pull-down/input)
6,GATGATTGTTCTCCCAGCTGATGAATTCACGCAGTCGAGTAAACAAATTTTCCTAATCTTTCTGTTCAAGCGCCATCTAC,1.02 RPM ratio (pull-down/input)
7,GATGATTGTTCTCCCAGCTGATGAATTTGCCGGTTCGAGTAAACAAATTTTCCTAATCTTTCTGTTCAAGCGCCATCTAC,0.889 RPM ratio (pull-down/input)
8,GATGATTGTTCTCCCAGCTGATGAATTATGTGATTCGAGTAAACAAATTTTCCTAATCTTTCTGTTCAAGCGCCATCTAC,1.13 RPM ratio (pull-down/input)
9,GATGATTGTTCTCCCAGCTGATGAATTCCATCAATCGAGTAAACAAATTTTCCTAATCTTTCTGTTCAAGCGCCATCTAC,0.963 RPM ratio (pull-down/input)
10,GATGATTGTTCTCCCAGCTGATGAATTGTTGGTCTCGAGTAAACAAATTTTCCTAATCTTTCTGTTCAAGCGCCATCTAC,1.66 RPM ratio (pull-down/input)
11,GATGATTGTTCTCCCAGCTGATGAATTTCCGTGTTCGAGTAAACAAATTTTCCTAATCTTTCTGTTCAAGCGCCATCTAC,0.936 RPM ratio (pull-down/input)
12,GATGATTGTTCTCCCAGCTGATGAATTATCCTCCTCGAGTAAACAAATTTTCCTAATCTTTCTGTTCAAGCGCCATCTAC,0.979 RPM ratio (pull-down/input)
13,GATGATTGTTCTCCCAGCTGATGAATTCTGTCCATCGAGTAAACAAATTTTCCTAATCTTTCTGTTCAAGCGCCATCTAC,0.857 RPM ratio (pull-down/input)
14,GATGATTGTTCTCCCAGCTGATGAATTTGAAGGGTCGAGTAAACAAATTTTCCTAATCTTTCTGTTCAAGCGCCATCTAC,0.789 RPM ratio (pull-down/input)
15,GATGATTGTTCTCCCAGCTGATGAATTTCAGGTATCGAGTAAACAAATTTTCCTAATCTTTCTGTTCAAGCGCCATCTAC,0.919 RPM ratio (pull-down/input)
16,GATGATTGTTCTCCCAGCTGATGAATTTCACAAGTCGAGTAAACAAATTTTCCTAATCTTTCTGTTCAAGCGCCATCTAC,0.872 RPM ratio (pull-down/input)
17,GATGATTGTTCTCCCAGCTGATGAATTGTCGGTTTCGAGTAAACAAATTTTCCTAATCTTTCTGTTCAAGCGCCATCTAC,0.995 RPM ratio (pull-down/input)
18,GATGATTGTTCTCCCAGCTGATGAATTCAAAGCATCGAGTAAACAAATTTTCCTAATCTTTCTGTTCAAGCGCCATCTAC,1.04 RPM ratio (pull-down/input)
19,GATGATTGTTCTCCCAGCTGATGAATTGGCTTGGTCGAGTAAACAAATTTTCCTAATCTTTCTGTTCAAGCGCCATCTAC,0.762 RPM ratio (pull-down/input)
20,GATGATTGTTCTCCCAGCTGATGAATTACTAACATCGAGTAAACAAATTTTCCTAATCTTTCTGTTCAAGCGCCATCTAC,1.77 RPM ratio (pull-down/input)
21,GATGATTGTTCTCCCAGCTGATGAATTCGTGCCATCGAGTAAACAAATTTTCCTAATCTTTCTGTTCAAGCGCCATCTAC,0.962 RPM ratio (pull-down/input)

row,Sequence,binding signal
1,GATGATTGTTCTCCCAGCTGATGAATTGCAACTATCGAGTAAACAAATTTTCCTAATCTTTCTGTTCAAGCGCCATCTAC,1.59 RPM ratio (pull-down/input)
2,GATGATTGTTCTCCCAGCTGATGAATTCGGATGTTCGAGTAAACAAATTTTCCTAATCTTTCTGTTCAAGCGCCATCTAC,0.864 RPM ratio (pull-down/input)
3,GATGATTGTTCTCCCAGCTGATGAATTCACTGACTCGAGTAAACAAATTTTCCTAATCTTTCTGTTCAAGCGCCATCTAC,0.861 RPM ratio (pull-down/input)
4,GATGATTGTTCTCCCAGCTGATGAATTCCTTCTCTCGAGTAAACAAATTTTCCTAATCTTTCTGTTCAAGCGCCATCTAC,0.736 RPM ratio (pull-down/input)
5,GATGATTGTTCTCCCAGCTGATGAATTCCGTCGTTCGAGTAAACAAATTTTCCTAATCTTTCTGTTCAAGCGCCATCTAC,0.868 RPM ratio (pull-down/input)
6,GATGATTGTTCTCCCAGCTGATGAATTAAGCATCTCGAGTAAACAAATTTTCCTAATCTTTCTGTTCAAGCGCCATCTAC,1.16 RPM ratio (pull-down/input)
7,GATGATTGTTCTCCCAGCTGATGAATTGGCTCGGTCGAGTAAACAAATTTTCCTAATCTTTCTGTTCAAGCGCCATCTAC,0.79 RPM ratio (pull-down/input)
8,GATGATTGTTCTCCCAGCTGATGAATTGATAACGTCGAGTAAACAAATTTTCCTAATCTTTCTGTTCAAGCGCCATCTAC,1.07 RPM ratio (pull-down/input)
9,GATGATTGTTCTCCCAGCTGATGAATTGGCAAAATCGAGTAAACAAATTTTCCTAATCTTTCTGTTCAAGCGCCATCTAC,1.05 RPM ratio (pull-down/input)
10,GATGATTGTTCTCCCAGCTGATGAATTGATGTTCTCGAGTAAACAAATTTTCCTAATCTTTCTGTTCAAGCGCCATCTAC,1.18 RPM ratio (pull-down/input)
11,GATGATTGTTCTCCCAGCTGATGAATTGACAGTATCGAGTAAACAAATTTTCCTAATCTTTCTGTTCAAGCGCCATCTAC,1.26 RPM ratio (pull-down/input)
12,GATGATTGTTCTCCCAGCTGATGAATTTAGGCAATCGAGTAAACAAATTTTCCTAATCTTTCTGTTCAAGCGCCATCTAC,1.15 RPM ratio (pull-down/input)
13,GATGATTGTTCTCCCAGCTGATGAATTCTCCTCCTCGAGTAAACAAATTTTCCTAATCTTTCTGTTCAAGCGCCATCTAC,0.88 RPM ratio (pull-down/input)
14,GATGATTGTTCTCCCAGCTGATGAATTGGGCCCTTCGAGTAAACAAATTTTCCTAATCTTTCTGTTCAAGCGCCATCTAC,0.812 RPM ratio (pull-down/input)
15,GATGATTGTTCTCCCAGCTGATGAATTTTGTTAGTCGAGTAAACAAATTTTCCTAATCTTTCTGTTCAAGCGCCATCTAC,1.82 RPM ratio (pull-down/input)
16,GATGATTGTTCTCCCAGCTGATGAATTATAACTGTCGAGTAAACAAATTTTCCTAATCTTTCTGTTCAAGCGCCATCTAC,0.963 RPM ratio (pull-down/input)
17,GATGATTGTTCTCCCAGCTGATGAATTAAGAAAATCGAGTAAACAAATTTTCCTAATCTTTCTGTTCAAGCGCCATCTAC,0.996 RPM ratio (pull-down/input)
18,GATGATTGTTCTCCCAGCTGATGAATTTGCTTCTTCGAGTAAACAAATTTTCCTAATCTTTCTGTTCAAGCGCCATCTAC,1.02 RPM ratio (pull-down/input)
19,GATGATTGTTCTCCCAGCTGATGAATTCCAATTGTCGAGTAAACAAATTTTCCTAATCTTTCTGTTCAAGCGCCATCTAC,0.99 RPM ratio (pull-down/input)
20,GATGATTGTTCTCCCAGCTGATGAATTTGGATTATCGAGTAAACAAATTTTCCTAATCTTTCTGTTCAAGCGCCATCTAC,1.05 RPM ratio (pull-down/input)
21,GATGATTGTTCTCCCAGCTGATGAATTCTCTTAGTCGAGTAAACAAATTTTCCTAATCTTTCTGTTCAAGCGCCATCTAC,0.855 RPM ratio (pull-down/input)

row,Sequence,binding signal
1,GATGATTGTTCTCCCAGCTGATGAATTATGGTCCTCGAGTAAACAAATTTTCCTAATCTTTCTGTTCAAGCGCCATCTAC,0.889 RPM ratio (pull-down/input)
2,GATGATTGTTCTCCCAGCTGATGAATTGCTTAGCTCGAGTAAACAAATTTTCCTAATCTTTCTGTTCAAGCGCCATCTAC,1.01 RPM ratio (pull-down/input)
3,GATGATTGTTCTCCCAGCTGATGAATTCCCCTTCTCGAGTAAACAAATTTTCCTAATCTTTCTGTTCAAGCGCCATCTAC,0.774 RPM ratio (pull-down/input)
4,GATGATTGTTCTCCCAGCTGATGAATTACAACGATCGAGTAAACAAATTTTCCTAATCTTTCTGTTCAAGCGCCATCTAC,1.25 RPM ratio (pull-down/input)
5,GATGATTGTTCTCCCAGCTGATGAATTGCTCTCTTCGAGTAAACAAATTTTCCTAATCTTTCTGTTCAAGCGCCATCTAC,1.01 RPM ratio (pull-down/input)
6,GATGATTGTTCTCCCAGCTGATGAATTAACTAGATCGAGTAAACAAATTTTCCTAATCTTTCTGTTCAAGCGCCATCTAC,0.941 RPM ratio (pull-down/input)
7,GATGATTGTTCTCCCAGCTGATGAATTCAAAGCGTCGAGTAAACAAATTTTCCTAATCTTTCTGTTCAAGCGCCATCTAC,0.872 RPM ratio (pull-down/input)
8,GATGATTGTTCTCCCAGCTGATGAATTTTAAGTATCGAGTAAACAAATTTTCCTAATCTTTCTGTTCAAGCGCCATCTAC,1.1 RPM ratio (pull-down/input)
9,GATGATTGTTCTCCCAGCTGATGAATTAAAGCATTCGAGTAAACAAATTTTCCTAATCTTTCTGTTCAAGCGCCATCTAC,1.23 RPM ratio (pull-down/input)
10,GATGATTGTTCTCCCAGCTGATGAATTCGGCATCTCGAGTAAACAAATTTTCCTAATCTTTCTGTTCAAGCGCCATCTAC,1.1 RPM ratio (pull-down/input)
11,GATGATTGTTCTCCCAGCTGATGAATTGGAGATATCGAGTAAACAAATTTTCCTAATCTTTCTGTTCAAGCGCCATCTAC,0.908 RPM ratio (pull-down/input)
12,GATGATTGTTCTCCCAGCTGATGAATTCAAGGTTTCGAGTAAACAAATTTTCCTAATCTTTCTGTTCAAGCGCCATCTAC,0.912 RPM ratio (pull-down/input)
13,GATGATTGTTCTCCCAGCTGATGAATTCAGTCCATCGAGTAAACAAATTTTCCTAATCTTTCTGTTCAAGCGCCATCTAC,0.891 RPM ratio (pull-down/input)
14,GATGATTGTTCTCCCAGCTGATGAATTGAGGGGCTCGAGTAAACAAATTTTCCTAATCTTTCTGTTCAAGCGCCATCTAC,0.822 RPM ratio (pull-down/input)
15,GATGATTGTTCTCCCAGCTGATGAATTTTAGTAGTCGAGTAAACAAATTTTCCTAATCTTTCTGTTCAAGCGCCATCTAC,0.947 RPM ratio (pull-down/input)
16,GATGATTGTTCTCCCAGCTGATGAATTGGTAGATTCGAGTAAACAAATTTTCCTAATCTTTCTGTTCAAGCGCCATCTAC,0.997 RPM ratio (pull-down/input)
17,GATGATTGTTCTCCCAGCTGATGAATTCGATCTCTCGAGTAAACAAATTTTCCTAATCTTTCTGTTCAAGCGCCATCTAC,0.749 RPM ratio (pull-down/input)
18,GATGATTGTTCTCCCAGCTGATGAATTGTCTGGCTCGAGTAAACAAATTTTCCTAATCTTTCTGTTCAAGCGCCATCTAC,0.857 RPM ratio (pull-down/input)
19,GATGATTGTTCTCCCAGCTGATGAATTCGGTGTGTCGAGTAAACAAATTTTCCTAATCTTTCTGTTCAAGCGCCATCTAC,0.959 RPM ratio (pull-down/input)
20,GATGATTGTTCTCCCAGCTGATGAATTGTGCATATCGAGTAAACAAATTTTCCTAATCTTTCTGTTCAAGCGCCATCTAC,1.29 RPM ratio (pull-down/input)
21,GATGATTGTTCTCCCAGCTGATGAATTGTCATAATCGAGTAAACAAATTTTCCTAATCTTTCTGTTCAAGCGCCATCTAC,1.44 RPM ratio (pull-down/input)
